Data from article PMC4336329 (PLoS ONE, 2015).
Among all 310,000 compounds or so, about 2,200 (0.71%) showed an effect of 50% or more. The effect is printed as a negative number. The list shows a part of the results.

The compounds below were run against human ether-à-go-go-related gene (hERG) potassium channel (human, UniProt Q12809) (assay: primary screen, population patch clamp on CHO cells stably expressing hERG).
Chain of human ether-à-go-go-related gene (hERG) potassium channel (Q12809 whole entry, looked up): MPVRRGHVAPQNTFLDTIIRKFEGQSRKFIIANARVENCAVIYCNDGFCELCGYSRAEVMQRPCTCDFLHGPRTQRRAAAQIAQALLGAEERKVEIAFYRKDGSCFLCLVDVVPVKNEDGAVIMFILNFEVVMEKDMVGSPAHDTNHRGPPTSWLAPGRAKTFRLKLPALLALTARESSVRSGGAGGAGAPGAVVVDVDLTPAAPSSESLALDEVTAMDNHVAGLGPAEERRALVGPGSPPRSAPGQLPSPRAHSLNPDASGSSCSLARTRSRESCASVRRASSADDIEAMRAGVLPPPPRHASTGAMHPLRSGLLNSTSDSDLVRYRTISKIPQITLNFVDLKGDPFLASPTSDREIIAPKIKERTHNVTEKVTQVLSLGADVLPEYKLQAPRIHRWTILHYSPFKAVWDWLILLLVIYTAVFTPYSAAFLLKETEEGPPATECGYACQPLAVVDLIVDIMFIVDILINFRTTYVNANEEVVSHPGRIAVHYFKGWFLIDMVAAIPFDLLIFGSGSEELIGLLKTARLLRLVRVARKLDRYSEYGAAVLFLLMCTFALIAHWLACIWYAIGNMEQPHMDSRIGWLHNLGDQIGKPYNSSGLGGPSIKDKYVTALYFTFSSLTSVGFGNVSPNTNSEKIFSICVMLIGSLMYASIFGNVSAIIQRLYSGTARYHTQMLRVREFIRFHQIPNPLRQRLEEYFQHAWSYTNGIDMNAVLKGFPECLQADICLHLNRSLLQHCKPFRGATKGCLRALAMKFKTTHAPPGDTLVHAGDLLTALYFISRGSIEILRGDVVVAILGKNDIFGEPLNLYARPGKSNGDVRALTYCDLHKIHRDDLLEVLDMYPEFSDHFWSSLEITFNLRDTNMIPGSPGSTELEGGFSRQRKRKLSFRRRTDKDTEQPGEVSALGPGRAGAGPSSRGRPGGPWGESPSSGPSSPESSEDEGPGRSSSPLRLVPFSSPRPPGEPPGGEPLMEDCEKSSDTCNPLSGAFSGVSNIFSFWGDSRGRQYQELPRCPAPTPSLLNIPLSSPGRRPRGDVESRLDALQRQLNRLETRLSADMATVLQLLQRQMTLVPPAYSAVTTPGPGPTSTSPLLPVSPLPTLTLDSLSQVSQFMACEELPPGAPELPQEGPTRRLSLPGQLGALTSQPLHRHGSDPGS
With `CCOc1ccc(Br)cc1C(=O)N/N=C/c1cccc(C)n1` the “hERG current change (%, negative = inhibition) at 1uM” value was 15.2%. For `N#CCC(=O)Nc1ccc(C(=O)OCC(=O)NCc2ccc3c(c2)OCO3)cc1`, the “hERG current change (%, negative = inhibition) at 1uM” value was 11.5%. For `Cc1ccc(NC(=O)c2ccc3c(c2)OCO3)cc1S(=O)(=O)N1CCOCC1`, the “hERG current change (%, negative = inhibition) at 1uM” value was 13.8%. In the case of `COc1ccc(NC(=O)COc2nsnc2N2CCOCC2)c(OC)c1`, the “hERG current change (%, negative = inhibition) at 1uM” value was 17.2%. With `O=C(O)CC(c1cccc(C(F)(F)F)c1)N1CCS(=O)(=O)CC1` (stereo not drawn) the “hERG current change (%, negative = inhibition) at 1uM” value was 10.7%. For `O=C(Nc1cccc(C(F)(F)F)c1)c1csc(-c2ccncc2)n1`, the “hERG current change (%, negative = inhibition) at 1uM” value was -82.4%. For `O=C(NNC(=O)c1cccc(S(=O)(=O)N2CCN(c3ccccc3)CC2)c1)c1ccc(Cl)cc1`, the “hERG current change (%, negative = inhibition) at 1uM” value was -32.6%. For `Cc1cc(C)n(CCC(=O)N/N=C/c2cccc([N+](=O)[O-])c2)n1`, the “hERG current change (%, negative = inhibition) at 1uM” value was 5.65%. For `CCCCn1c(N)c(N(CC(C)C)C(=O)COC(=O)c2ccccc2NCCO)c(=O)[nH]c1=O`, the “hERG current change (%, negative = inhibition) at 1uM” value was 11.1%. With `CCNc1nc(NCC)nc(OCCOC(C)=O)n1` the “hERG current change (%, negative = inhibition) at 1uM” value was 10.7%. `Cc1[nH][nH]c(=O)c1C(c1ccc(-c2cccc(C(=O)O)c2)o1)c1c(C)[nH][nH]c1=O` was tested, and the “hERG current change (%, negative = inhibition) at 1uM” value was 18.6%. With `O=C(C1CCN(S(=O)(=O)c2ccc(Cl)cc2)CC1)N1CCCC1` the “hERG current change (%, negative = inhibition) at 1uM” value was 0.45%. In the case of `O=C(Cc1ccccc1)Nc1ccc(C(=O)Nc2ccc(O)cc2)cc1`, the “hERG current change (%, negative = inhibition) at 1uM” value was 13.6%. With `CC1CCN(c2nc(-c3ccccc3O)nc3ccccc23)CC1` the “hERG current change (%, negative = inhibition) at 1uM” value was 20.4%. With `CC(=O)c1cccc(S(=O)(=O)N2CCN(c3ccccc3F)CC2)c1` the “hERG current change (%, negative = inhibition) at 1uM” value was 5.02%. `O=C(Cc1ccccc1F)Nc1ccc(S(=O)(=O)Nc2ncccn2)cc1` was tested, and the “hERG current change (%, negative = inhibition) at 1uM” value was 12.7%. With `CC(C)(C)c1cc(NC(=O)COC(=O)c2nccnc2N)n(-c2ccccc2)n1` the “hERG current change (%, negative = inhibition) at 1uM” value was 17.4%. In the case of `O=C(NNC(=O)[C@@H]1CCCC[C@@H]1C(=O)O)Nc1ccccc1`, the “hERG current change (%, negative = inhibition) at 1uM” value was 13.5%. In the case of `Cc1cccc(NC(=O)CSc2n[nH]c(-c3cccnc3)n2)c1`, the “hERG current change (%, negative = inhibition) at 1uM” value was 9.5%. With `CCN(CC)/C(N)=N/c1nc(C)cc(C)n1` the “hERG current change (%, negative = inhibition) at 1uM” value was 3.23%. `COc1c(S(=O)(=O)NCCN2CCOCC2)ccc(Cl)c1Cl` was tested, and the “hERG current change (%, negative = inhibition) at 1uM” value was -5.65%. With `CN1CCN(S(=O)(=O)c2ccc(Nc3ccc(F)cc3)c([N+](=O)[O-])c2)CC1` the “hERG current change (%, negative = inhibition) at 1uM” value was -14.9%. In the case of `Nc1nc(Nc2ccc(Cl)cc2)c(NC=O)c(=O)[nH]1`, the “hERG current change (%, negative = inhibition) at 1uM” value was 11.5%. For `COC(=O)c1sccc1NC(=O)CC1C(=O)NCCN1C(=O)c1ccc(F)cc1` (stereo not drawn), the “hERG current change (%, negative = inhibition) at 1uM” value was -5.56%. With `CCn1c(=S)sc2c(=O)[nH]c(C)nc21` the “hERG current change (%, negative = inhibition) at 1uM” value was 13.5%. For `O=C(COc1cccc2cccnc12)NNC(=S)Nc1ccccc1`, the “hERG current change (%, negative = inhibition) at 1uM” value was -6.43%. `CCOC(=O)C(C)Oc1cc(C)cc2oc(=O)c3c(c12)CCCC3` (stereo not drawn) was tested, and the “hERG current change (%, negative = inhibition) at 1uM” value was -7.5%. `CN1C(=O)C(C)(C)c2cc(S(=O)(=O)N3CCCC(C(=O)NCc4ccc(F)cc4)C3)ccc21` (stereo not drawn) was tested, and the “hERG current change (%, negative = inhibition) at 1uM” value was 8.72%. For `Cc1ccc(CN2C(=O)CCC2C(=O)NC2CCCC2)cc1` (stereo not drawn), the “hERG current change (%, negative = inhibition) at 1uM” value was 10.1%. With `O=C(COc1cc2oc(=O)c3c(c2cc1Cl)CCC3)N1C[C@H]2C[C@@H](C1)c1cccc(=O)n1C2` the “hERG current change (%, negative = inhibition) at 1uM” value was -5.28%. `CC(=O)c1ccc(OCC(=O)OCC(=O)NCc2ccco2)cc1` was tested, and the “hERG current change (%, negative = inhibition) at 1uM” value was 13%. `Cc1ccc[n+](CC(=O)Nc2nc3ccccc3s2)c1.[Cl-]` was tested, and the “hERG current change (%, negative = inhibition) at 1uM” value was 15.2%. For `O=c1c(-c2ccc(Cl)cc2)coc2c(CN3CCCCC3)c(O)ccc12`, the “hERG current change (%, negative = inhibition) at 1uM” value was -1.1%. In the case of `CCCCCn1c(=S)[nH]c2ncccc2c1=O`, the “hERG current change (%, negative = inhibition) at 1uM” value was -4.93%. In the case of `CC(C)(C)c1ccc(C(=O)NCc2cccnc2)cc1`, the “hERG current change (%, negative = inhibition) at 1uM” value was 19.3%. With `O=c1c2cc(Cl)ccc2nc(-c2ccccc2Cl)n1O` the “hERG current change (%, negative = inhibition) at 1uM” value was 15.4%. In the case of `CCOc1ccc(CCn2c(-c3ccco3)nc3ccccc3c2=O)cc1OCC`, the “hERG current change (%, negative = inhibition) at 1uM” value was 5.96%. In the case of `O=Cc1ccc(OCC(=O)Nc2ccccc2-c2ccccc2)cc1`, the “hERG current change (%, negative = inhibition) at 1uM” value was -9.63%. `O=C(O)c1cccnc1SC1CC(=O)N(CCc2ccccc2)C1=O` (stereo not drawn) was tested, and the “hERG current change (%, negative = inhibition) at 1uM” value was 3.07%. In the case of `CCCCn1c(=O)cc(O)c2ccccc21`, the “hERG current change (%, negative = inhibition) at 1uM” value was 13.6%. `CSCCCNC(=S)Nc1ccc(N2CCOCC2)cc1` was tested, and the “hERG current change (%, negative = inhibition) at 1uM” value was 28%. With `Cc1ccc(Cl)cc1N1CCN(CC(=O)Nc2ccc(CN3CCCCC3)cc2)CC1.Cl` the “hERG current change (%, negative = inhibition) at 1uM” value was -21.6%. `CC(C(=O)Nc1ccc(F)cc1Cl)N(C)CCOc1ccccc1` (stereo not drawn) was tested, and the “hERG current change (%, negative = inhibition) at 1uM” value was 3.18%. In the case of `CCCCn1c(-c2ccc(Br)cc2F)nc2c1c(=O)[nH]c(=O)n2CC(C)C`, the “hERG current change (%, negative = inhibition) at 1uM” value was 9.08%. In the case of `CCOC(=O)C1=C(C)NC(=O)NC1c1ccsc1` (stereo not drawn), the “hERG current change (%, negative = inhibition) at 1uM” value was 8.25%. With `COc1ccc(C(=O)c2cc(C(C)=O)c(Nc3ccccc3)s2)cc1` the “hERG current change (%, negative = inhibition) at 1uM” value was -5.05%. With `CCC1(c2ccc(F)cc2)NC(=O)N(CC(=O)N2CCc3ccccc32)C1=O` (stereo not drawn) the “hERG current change (%, negative = inhibition) at 1uM” value was -2.15%. For `CCCNC(=O)c1ccc2c(c1)ncn2-c1ccccc1OC`, the “hERG current change (%, negative = inhibition) at 1uM” value was -31.8%. With `CN(CC(=O)Nc1sc2c(c1C#N)CCCCC2)Cc1nc2ccccc2c(=O)[nH]1` the “hERG current change (%, negative = inhibition) at 1uM” value was 14.8%. With `O=C(NCc1ccc(Cl)cc1)C(=O)NCC1OCCN1S(=O)(=O)c1ccc2c(c1)OCCO2` (stereo not drawn) the “hERG current change (%, negative = inhibition) at 1uM” value was 5.43%. For `Cc1nnc(NC(=O)C2CCCN(c3ncccn3)C2)s1` (stereo not drawn), the “hERG current change (%, negative = inhibition) at 1uM” value was 2.94%. In the case of `CCC(C)[C@H]1COCCS(=O)(=O)N1Cc1ccc(Cl)cc1Cl` (stereo partly drawn), the “hERG current change (%, negative = inhibition) at 1uM” value was -10.8%. For `CCCn1nc(C(=O)N2CCN(S(=O)(=O)c3ccc(C)c(C)c3)CC2)c2ccccc2c1=O`, the “hERG current change (%, negative = inhibition) at 1uM” value was 7.33%. `O=C(NCc1ccc2c(c1)OCO2)c1ccccc1Cl` was tested, and the “hERG current change (%, negative = inhibition) at 1uM” value was 9.01%. For `O=C1CN(c2cc(Cl)cc(Cl)c2)C(=O)CN1/N=C/c1cccnc1`, the “hERG current change (%, negative = inhibition) at 1uM” value was 5.68%. In the case of `C=Cn1ccnc1P(O)(=S)c1nc(C)c(CCOC(C)=O)s1` (stereo not drawn), the “hERG current change (%, negative = inhibition) at 1uM” value was -2.08%. `CCCNC(=O)CN1CCN(S(=O)(=O)c2ccc(Br)s2)CC1` was tested, and the “hERG current change (%, negative = inhibition) at 1uM” value was -0.838%.
